Assay results published in publication PMC10191626.
No constants are given. Whether binding was seen depends on the method and setting. For part of these data: Binding seen in cells or lysates may run through a third protein. Some binding calls cover weakened binding; strength is not graded here.

Chains of the proteins cited; added tags and fusions are not shown. Residues count along the entry.
UniProt P60953: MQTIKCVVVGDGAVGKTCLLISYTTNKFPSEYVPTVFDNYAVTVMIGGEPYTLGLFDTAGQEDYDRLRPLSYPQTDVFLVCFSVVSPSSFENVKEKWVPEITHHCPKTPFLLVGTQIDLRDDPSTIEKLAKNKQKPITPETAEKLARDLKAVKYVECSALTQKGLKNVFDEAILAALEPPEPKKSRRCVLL
UniProt Q13153, residues 70-117: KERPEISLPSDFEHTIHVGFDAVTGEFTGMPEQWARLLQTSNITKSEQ
UniProt Q92747: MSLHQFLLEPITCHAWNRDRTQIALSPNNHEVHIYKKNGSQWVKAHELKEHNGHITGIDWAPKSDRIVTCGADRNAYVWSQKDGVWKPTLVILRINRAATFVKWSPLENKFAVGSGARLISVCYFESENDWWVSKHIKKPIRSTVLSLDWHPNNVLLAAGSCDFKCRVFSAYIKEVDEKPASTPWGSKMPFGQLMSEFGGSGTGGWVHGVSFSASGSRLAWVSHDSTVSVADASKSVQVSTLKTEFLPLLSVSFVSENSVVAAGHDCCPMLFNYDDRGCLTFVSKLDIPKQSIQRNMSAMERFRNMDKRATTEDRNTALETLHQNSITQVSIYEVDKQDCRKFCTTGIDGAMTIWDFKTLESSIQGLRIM

Columns and labels:
[1] = target: GST-CDC42 (pGEX-2T-CDC42-WT) on glutathione beads (UniProt P60953); assay: pull-down; GST-RAC1 or GST-CDC42 on glutathione beads loaded with GTPγS or GDP, incubated with recombinant human ERK3 for 1 hr at 4°C in 25 mM Tris-HCl pH 7.2, 150 mM NaCl, 5 mM MgCl2, 1% NP-40, 5% glycerol; GST on beads as negative control; both purified
[2] = target: recombinant CDC42 protein (no tag) (UniProt P60953); assay: ELISA; 100 ng/well of bait (RAC1, CDC42, ARP3 or ARP2/3 complex) coated in PBS pH 7.5; titrant ERK3 protein at 5, 10, 20 and 40 nM in 1% BSA/PBS, 2 hr at RT; detected with anti-GST or anti-ERK3 antibody; GST as negative control; both purified
[3] = target: GST-PAK1-PBD (pGEX2TK-PAK1 (70–117), p21-binding domain) fusion beads (UniProt Q13153); assay: pull-down; GST-PAK1-PBD beads incubated with ERK3 (aa 9–327) or with CDC42 pre-loaded with GTPγS or GDP; blot and Ponceau S; both purified
[4] = target: GST-CDC42 (pGEX-2T-CDC42-WT) on glutathione beads (UniProt P60953); assay: pull-down; GST-RAC1 or GST-CDC42 WT beads incubated with ERK3 kinase domain (aa 9–327); both purified
[5] = target: CDC42, endogenous, active (GTP-bound), captured on PAK1-PBD beads (human (endogenous in HMEC, MDA-MB231, MCF7, MDA-MB468, Calu1, HT-29, HUVEC)) (UniProt P60953); assay: pull-down; active RAC1/CDC42 pull-down from cell lysates with GST-PAK1-PBD beads (Thermo Fisher kit Cat# 16118/19 or purified fusion beads), blots of the precipitate; cells with or without EGF (100 ng/ml, 15 min), ERK3 knock-down or knock-out, reconstitution with ERK3 WT or KD, or ARP3 S418D overexpression

In the case of “recombinant human ERK3 protein (Cat# OPCA01714, Aviva Systems Biology) (from UniProt Q16659 1-721)”, the binding [1] is reported as “binds”.

“full-length GST-ERK3 (SignalChem, Cat# M31-34G) (from UniProt Q16659 1-721)” was tested, and the binding [2] was “binds”.

With “ERK3 kinase domain (aa 9–327) (Crelux) (from UniProt Q16659 9-327) (domain or fragment)” the binding [3] was “no binding” and the binding [4] was “binds”.

For “recombinant CDC42 protein (no tag) (from UniProt P60953 1-191)”, the binding [3] was “binds”.

For “ARPC1A, endogenous (HMEC) (from UniProt Q92747 1-370)”, the binding [5] was “binds”.

For “V5-tagged wild type ERK3 (ERK3 WT) in shERK3 HMECs (from UniProt Q16659 1-721)”, the binding [5] was “binds”.

In the case of “ERK3 (MAPK6), endogenous (from UniProt Q16659 1-721)”, the binding [5] is reported as “binds”.

With “V5-tagged kinase dead ERK3 (ERK3 KD, K49A/K50A) in shERK3 HMECs (from UniProt Q16659 1-721)” the binding [5] was “binds”.
